Experimental data taken from PubChem BioAssay AID1508623 (National Center for Advancing Translational Sciences (NCATS), 2021).
Out of some 48,000 compounds screened, about 450 (0.94%) were called active. Not shown: some 19% with an inconclusive outcome. The call rests on the fitted dose curve; in most records, active means well fitted inhibition curve with a large enough effect; inconclusive means small, poorly fitted or top-dose-only effect; inactive means no such curve, though single readings can be large or run the other way. The list shows a part of the results.

Test: Primary qHTS for Identification of Small Molecule Inhibitors of Huntingtin Promoter Activity; further: nearly all actives have a fitted effect of over 50% in size
Settings: HEK293 HTT promoter firefly luciferase reporter (activity 0% = vehicle and -100% = no light), 24 h; series mostly up to 57.5 µM; activity change, negative = inhibition: at the top concentration
How it was run: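 Luminescence was read after Dual-Glo reagent and a 10 min room-temperature incubation. Values were normalized to vehicle (0% activity) and zero RLU (-100% activity). Reporter HEK293 cells had been exposed to compounds (up to 57.5 uM final) for 24 h.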

Row | Structure (SMILES) | activity change, negative = inhibition
1 | Cc1c(Cl)cccc1NC(=O)CSc1nc(=O)n(CCN2CCOCC2)c2c1CCC2 | inactive: -22.7%
2 | CCOc1ccc(NC(=O)c2sc3nc(-c4ccc(OC)cc4)cn3c2C)cc1 | inactive: -10.4%
3 | COc1ccc(-n2ccn(CC(=O)Nc3ccccc3C(F)(F)F)c(=O)c2=O)cc1OC | inactive: -1.13%
4 | COc1ccc(-c2nsc(NC(=O)c3ccccc3Br)n2)cc1 | inactive: 32%
5 | COc1cc(NC(=O)C2CCCN(S(=O)(=O)c3cn(C)cn3)C2)cc(OC)c1 (stereo unspecified) | inactive: -13.7%
6 | CCOC(=O)c1cc2c(=O)n3ccccc3nc2n(CC(C)C)c1=NC(=O)C(C)Oc1ccccc1 (stereo unspecified) | inactive: 1.76%
7 | CCOc1ccc(NC(=O)CCS(=O)(=O)c2cc3c4c(c2)CCN4C(=O)CC3)cc1 | inactive: -12.8%
8 | CC(=O)OC(C)OC(=O)C(C)c1ccc(-c2ccccc2)c(F)c1 (stereo unspecified) | inactive: 5.35%
9 | O=C(NC1CC(=O)N(c2ccc(Cl)cc2)C1)C(=O)c1c[nH]c2ccccc12 (stereo unspecified) | inactive: -0.147%
10 | Cc1ccc(NC(=O)CCS(=O)(=O)c2ccc3c(c2)oc(=O)n3C)c(Br)c1 | inactive: -16.9%
11 | Cc1ccc2nc(COc3cccc(NC(=O)COc4ccc(F)cc4)c3)cc(=O)n2c1 | inactive: 33.2%
12 | Cc1c(Cl)cccc1Nc1nn2c(=O)c3ccc(C(=O)N(C)Cc4ccccc4)cc3nc2s1 | inactive: -30.4%
13 | COc1ccc(NC(=O)c2cc3c(C)nn(-c4ccccc4)c3s2)c(OC)c1 | inactive: -9.74%
14 | Cc1cc(C)cc(-n2c(SCC(=O)NC3CCCCC3)nc3c([nH]c4ccccc43)c2=O)c1 | inactive: -8.58%
15 | CCOc1cc(S(=O)(=O)NCCc2c(C)[nH]c3ccc(C)cc23)ccc1Br | inactive: -23.9%
16 | COc1ccc(N2CCN(C(=O)CSCc3ccc(C)cc3)CC2)cc1 | inactive: -12.5%
17 | O=c1[nH]c(SCc2c(F)cccc2Cl)nc2c1CCCC2 | inactive: -16.6%
18 | COCCNC(=O)c1[nH]c2cc(C)ccc2c1Sc1ccc(Cl)cc1 | inactive: 19%
19 | O=C(Nc1cccc(-c2nc3ccccc3o2)c1)c1cccc2c(Cl)cccc12 | inactive: -15.9%
20 | CC(C)OC(=O)OCOP(=O)(CO[C@H](C)Cn1cnc2c(N)ncnc21)OCOC(=O)OC(C)C | inactive
21 | O=C(COc1ccccc1)OCc1cc(=O)n2nc(-c3cccs3)sc2n1 | inactive: -17.3%

Row | Structure (SMILES) | activity change, negative = inhibition
22 | Cc1c(Cl)cccc1NC(=O)c1cc2nc(-c3ccc4c(c3)OCO4)cc(C(F)(F)F)n2n1 | inactive: 4.76%
23 | CCc1nn(CC(=O)NC(C)CC)c(=O)c2cc3occc3n12 (stereo unspecified) | inactive: -17.6%
24 | COc1ccc(CNC(=O)c2cnc3ccc(C)cn3c2=O)cc1 | inactive: -16%
25 | CC(C)(C)OC(=O)N1CCC(c2c(C(=O)Nc3ccc4c(c3)OCO4)cnn2-c2ccccc2)CC1 | inactive: -5.47%
26 | O=C(NCc1ccc2c(c1)CCN2C(=O)c1ccncc1)c1ccccc1F | inactive: -25%
27 | COC(=O)c1ccccc1NC(=O)CCS(=O)(=O)c1nc(-c2ccc3c(c2)OCO3)cc(C(F)(F)F)n1 | inactive: 6.08%
28 | COc1ccccc1CNc1ncnc2c1nnn2C | inactive: -13.5%
29 | CCOCCCn1c(=N)c(S(=O)(=O)c2ccc(Cl)cc2)cc2c(=O)n3cccc(C)c3nc21 | inactive: 8.29%
30 | COC(=O)c1c(-c2cccs2)csc1NC(=O)c1ccc(C(C)C)cc1 | inactive: -0.494%
31 | COc1ccccc1NC(=O)C(=O)NCC(c1cccnc1)N1CCc2ccccc2C1 (stereo unspecified) | inactive: -6.34%
32 | COc1ccc(-n2nc(C(=O)Nc3cc(C)ccn3)c3c4ccccc4n(C)c3c2=O)cc1Cl | inactive: 20.2%
33 | CC(=O)Nc1nonc1-c1nnc(SCc2ccccc2)n1C | inactive: -12.8%
34 | CCc1ccc(NC(=O)Cn2c(=O)c3cc(Cl)ccc3n3nncc23)cc1 | inactive: 4.44%
35 | CCOc1ccc(-c2cc(C(=O)NCCc3ccc(OC)c(OC)c3)[nH]n2)cc1 | inactive: -8.58%
36 | CN1CC(=O)N(CC(=O)Nc2ccc(OC(F)(F)F)cc2)c2ccccc2C1=O | inactive: -1.05%
37 | O=c1c2oc3ccccc3c2n(Cc2cccc(F)c2)c(=O)n1Cc1ccc2c(c1)OCO2 | inactive: -12.3%
38 | COC(=O)c1cccc(CN2C(=O)SC(Nc3ccc(C)cc3)C2=O)c1 (stereo unspecified) | inactive: -10.8%
39 | C=Cc1ccc(Cn2c(SCC(=O)N3CCN(c4ccc(F)cc4)CC3)nc3ccccc32)cc1 | inactive: -23.3%
40 | Cc1cccc(NC(=O)/C(C#N)=C/c2ccc(C)o2)c1 | inactive: 17.6%
41 | CCOC(=O)c1ccc(NC(=O)CCc2nc3cccnc3n2Cc2cccs2)cc1 | inactive: -16%
42 | C[C@@]12CCC[C@H]1[C@@H]1CC[C@H]3C[C@@H](O)CC[C@]3(C)[C@H]1CC2 | inactive: 7.91%

Row | Structure (SMILES) | activity change, negative = inhibition
43 | Cc1ccc(S(=O)(=O)c2cn(CC(=O)Nc3ccc(Cl)cc3)c3ccc(F)cc3c2=O)cc1C | inactive: -13.7%
44 | COc1cc(C2CC(=O)Nc3c2c(=O)n(C)c2ncnn32)cc(OC)c1OC (stereo unspecified) | inactive: -1.74%
45 | CCOC(=O)c1c(NC(=O)c2cc(CC)on2)sc(C(C)=O)c1C | inactive: -1.62%
46 | CC(=O)c1ccc(N2CCN(c3ccc4cc(S(=O)(=O)N5CCC(C)CC5)ccc4n3)CC2)cc1 | inactive: -19.2%
47 | CSc1ccc(CCNC(=O)c2c(C)oc3ncn(C)c(=O)c23)cc1 | inactive: 3.36%
48 | COc1ccc(CCN2CCC(CNC(=O)c3cnn(-c4cccc(Cl)c4)c3C3CCN(C(=O)OC(C)(C)C)CC3)CC2)cc1 | inactive: -16.5%
49 | Cc1cccc(Cn2c(Cc3ccccc3)nc3ccccc32)c1 | inactive: -20.2%
50 | O=C(CN1c2ccccc2S(=O)(=O)c2ccccc21)Nc1cccc(C(F)(F)F)c1 | inactive: -20.2%
51 | CCOC(=O)c1c(S(=O)(=O)NCC(=O)N(C)Cc2ccccc2)c(C)n(C)c1C | inactive: -5.18%
52 | COc1ccccc1N1CCN(c2ncnc3c2c(-c2ccccc2)cn3-c2cccc(C)c2)CC1 | inactive: -21.2%
53 | CC1CCN(S(=O)(=O)c2csc(C(N)=O)c2)CC1 | inactive: -11.1%
54 | CCCOc1ccc(C2c3c(oc4ccc(F)cc4c3=O)C(=O)N2CCc2ccc(OC)cc2)cc1 (stereo unspecified) | inactive: -1.94%
55 | Cc1ccc(CSc2nc3cccnc3n2Cc2ccc(C(=O)NC3CCCCC3)cc2)cc1 | inactive: -4.11%
56 | O=C(CSc1oc(-c2ccc(F)cc2)nc1S(=O)(=O)c1ccc(Br)cc1)NC1CCCCC1 | inactive: -13.2%
57 | CC(=O)Nc1nonc1-c1nnc(SCC(=O)Nc2ccc(C)c(Cl)c2)n1C | inactive: -17.7%
58 | CCOc1ccc2c(c1)c(=O)c(S(=O)(=O)c1ccc(C)cc1)cn2Cc1ccccc1Cl | inactive: -22.6%
59 | COc1ccc(-c2nc(S(=O)(=O)c3ccc(C)cc3)c(N3CCCCC3)o2)cc1 | inactive: 2.18%
60 | Cc1ccc(CNC(=O)CN2C(=O)CC(c3ccc(C)c(C)c3)=Nc3ccccc32)cc1 | inactive: 8.65%
61 | CCCCOC(=O)c1ccc(Nc2ncnc3c2cnn3-c2cccc(C)c2)cc1 | inactive: -14.7%
